According to PubChem BioAssay (NCATS):
Inconclusive means that the source gave no clear call. Such entries were picked first, then a sample of the others. For some of these results: A potency beside an inconclusive call is a rough fit, not a confirmed value. Calls of active or inactive are those of the source. Unless noted, calls come from the whole dose curve; as a rule, active = well fitted curve in the direction sought with a large enough effect; inconclusive = small, poorly fitted or top-dose-only effect, or another doubt; inactive = no such curve, though single readings can be large; an effect the other way counts as inactive or inconclusive. Starred links: 1 amine or outer side, 2 acyl side, 3 side chain; linkers in the order of their positions; H or OH if unused. Positions of bridges follow the written chain, without caps; N, C: chain ends. Non-standard residues stand in square brackets, D forms with d. Residues, ends and D or L forms follow the SMILES beside them. Chains are numbered I, II in the order given. Actinocin(9to1) = Cc1c2oc3c(C)ccc(C(=O)[*:1])c3nc-2c(C(=O)[*:2])c(N)c1=O; aThr = C[C@H](O)[C@H](N)C(=O)O; NMeV = CN[C@H](C(=O)O)C(C)C; Sar = CNCC(=O)O

Key:
[1] = tested on: Zika virus NS2B-NS3 protease (linked construct); assay: Primary screen NINDS Rhodamine qHTS for Zika virus inhibitors (AID 1347160); note: % is set by controls: 0 for no effect and ±100 for the full control effect; nearly all actives have a fitted effect of over 55% in size
Summary of the method: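 Rhodamine110-peptide cleavage (1.5 µM substrate) by 25 nM linked NS2B-NS3 enzyme at pH 8.0 (Tris, Tween 20), after 15 min RT preincubation with compounds; 15-min fluorescence change normalized to controls and Hill-fitted.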

[2] = biological target: Glutathione peroxidase 1 (Homo sapiens) (UniProt P07203); assay: Primary qHTS Assay for Inhibitors of Recombinant Selenoprotein Glutathione Peroxidase 1 (GPX1) (AID 1845191); note: nearly all actives have a fitted effect of over 65% in size
Summary of the method: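 GR-coupled readout: NADPH consumption tracked by fluorescence, ex 340/em 450 nm, at t=0 and after 15 min at RT. Final mix 10 nM GPX1, 1 mM GSH, 0.5 mM CHP, 0.5 mM NADPH, 100 nM GR, 0.01% BSA, following 30 min enzyme–compound preincubation.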

[3] = Confirmatory screen NINDS Rhodamine qHTS for Zika virus inhibitors (AID 1347161); note: nearly all actives have a fitted effect of over 60% in size; note: potency is the fitted concentration of half-maximal effect;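 for activity change, negative = inhibition: purified Zika NS2B-NS3 protease with linked NS2B cofactor domain and Rhodamine110 peptide substrate; plate controls were no-inhibitor control for no effect and no-enzyme control for full effect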
Summary of the method: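 qHTS dose-response: 25 nM linked protease, pH 8.0 Tris/Tween buffer, cpd titration, 15 min RT preinc, 1.5 microM Rhod110 peptide, 15 min reaction (~15% conversion), Ex480/Em540; 4-parameter Hill fit.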

[4] = Tertiary RLuc qRT-PCR qHTS assay for Zika virus inhibitors (AID 1347169); note: potency is the fitted concentration of half-maximal effect; nearly all actives have a fitted effect of over 55% in size
Summary of the method: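 Vero cells (1,000/well) infected with recombinant ZIKV-RLuc (Cambodian) at MOI 1-2 after compound addition, 48-72 hrs at 37 degrees C. Live-cell Renilla luciferase substrate added; luminescence read after 1-1.5 hrs.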

[5] = AP1 Signaling Pathway (AID 357; active = well fitted curve in either direction with a large enough effect, not every such curve was filed as active; inconclusive = small, poorly fitted or top-dose-only effect, or another doubt;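 note: ME-180 reporter cells stimulated with EGF at its EC50 level; top concentration of the series differs between compounds; % is set by controls: 0 for no effect and ±100 for the full control effect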); details: ME-180 AP-1-bla reporter, EGF-induced, beta-lactamase ratio, 5 h; at 7.69 µM (top of the series) unless noted
Summary of the method: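 Read-out was the 460nm/530nm emission ratio (excitation 405nm) after CCF4 loading for 2.5 hours at room temperature. Cells carried an AP-1-driven beta-lactamase reporter, were stimulated with EC50 EGF plus compound for 5 hours, and AC50 values came from titrations.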

[6] = qHTS Assay for Identification of Small Molecule Agonists for Hypoxia Response Element Signaling Pathway (AID 914; active = well fitted activation curve with a large enough effect in the signal ratio, with a control signal flat, not every such curve was filed as active; inconclusive = small, poorly fitted or top-dose-only effect, or effect the other way, or a change in a side signal; the % refers to the signal ratio; note: top concentration of the series differs between compounds; % of control where 0% means no effect); details: ME-180 (cervical carcinoma) HRE-bla reporter, beta-lactamase ratio, CoCl2, 17 h; activation: active compounds read high
Summary of the method: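 qHTS titration; ME-180 HRE-bla cells; EC50 CoCl2 co-treatment, 17 h at 37 degrees Celsius; CCF4 dye, ex 405nm, em 460nm and 530nm; %Activity from ratio; AC50.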

[7] = Validation screen for small molecules that induce DNA re-replication in SW480 colon adenocarcinoma cells (AID 504364); note: 0% is about no effect
Summary of the method: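 Image-based DNA content read-out: Hoechst stain 40 min, total nuclear fluorescence intensity (ex 405 nm, em 500-530 nm) after 48 h compound exposure of 250 SW480 cells/well at 37 C, 5% CO2, versus DMSO vehicle.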

[8] = qHTS of Trypanosoma Brucei Inhibitors: LOPAC Validation (AID 624147); note: potency is the fitted concentration of half-maximal effect
Summary of the method: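 Screened from lowest to highest concentration, compounds were pinned into TbPYK/substrate mixtures, and ADP (130 uM final) was added. Plates sat at room temperature for 45 min prior to Kinase-Glo Plus detection by luminescence.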

[9] = biological target: Cytochrome P450 1A2 (Homo sapiens) (UniProt P05177); assay: p450-cyp1a2 (AID 410; calls by dose curve; note: potency is the fitted concentration of half-maximal effect)
Summary of the method: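 Luminescent demethylation readout: Luciferin-ME (100uM, equal to Km) turned over by 20nM CYP1A2 for 60 min at room temperature after NADPH regeneration addition, following 10 min compound preincubation. Normalization used 57 uM furafylline as full inhibition.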

[10] = biological target: 3',5'-cyclic-AMP phosphodiesterase 4B (Homo sapiens) (UniProt Q07343); assay: qHTS Assay for Inhibitors of PDE-IV (AID 607; active = well fitted activation curve with a large enough effect in the main read-out, with a control signal flat, not every such curve was filed as active; inconclusive = small, poorly fitted or top-dose-only effect, or effect the other way, or a change in a side signal; note: potency is the fitted concentration of half-maximal effect; for activation (PDE inhibition): % of control where 0% means no effect); details: HEK293 ACTOne CNG channel cells, membrane potential fluorescence; activation (PDE inhibition): at 22.9 µM (top of the series)
Summary of the method: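 Cell-based read-out of cAMP via a modified cyclic nucleotide-gated channel and membrane potential dye (535/590 nm) in HEK293 cells expressing PDE4 endogenously. Compounds tested up to 22.9 uM final; 100 uM RO 20-1724 reference.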

[11] = biological target: Cytochrome P450 3A4 (Homo sapiens) (UniProt P08684); assay: qHTS Assay for Inhibitors and Substrates of Cytochrome P450 3A4 (AID 884); details: recombinant CYP3A4, Luciferin-PPXE luminescence; activity change, negative = inhibition: at 57.1 µM (top of the series); note: potency is the fitted concentration of half-maximal effect; nearly all actives have a fitted effect of over 50% in size
Summary of the method: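 Luminescent readout of luciferin produced by CYP3A4 (20 nM) dealkylation of Luciferin-PPXE, 25 uM (its KM). NADPH-driven reaction ran 60 min at RT after 10 min compound preincubation; data scaled to 57 uM ketoconazole as 100% inhibition.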

[12] = biological target: Glucocorticoid receptor (Homo sapiens) (UniProt P04150); assay: GR-GFP Redistribution (AID 450;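 active = compounds whose dose series gives a full or clear partial fitted curve of increased nuclear translocation; inconclusive = weak partial curve or effect only at the top dose; inactive = no dose-dependent translocation response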; note: potency is the fitted concentration of half-maximal effect); details: U2OS GR-GFP nuclear translocation, laser cytometry, 2 h
[13] = qHTS Assay for Identification of Small Molecule Agonists for NFkB Signaling Pathway (AID 928; calls by dose curve); details: NFkB beta-lactamase reporter cells, blue/green ratio
Summary of the method: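 Activators were sought with TNF alpha co-added at 10 pM final (its EC50) to beta-lactamase reporter cells. Cells were plated in OPTI MEM with 0.5% FBS and exposed for 5 hrs at 37 C. The FRET substrate ratio was read at 460 and 530 nm.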

[14] = Vero cells viability qHTS for Zika virus inhibitors (AID 1347167); note: % is set by controls: 0 for no effect and ±100 for the full control effect
Summary of the method: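 qHTS titration; 24-48 h compound exposure, 37 degrees C/5% CO2; DMEM, 4% FBS; CellTiter Glo ATP luminescence.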

[15] = biological target: Cytochrome P450 2D6 (Homo sapiens) (UniProt P10635); assay: Cytochrome P450 family 2 subfamily D member 6 (CYP2D6) small molecule antagonists: luciferase biochemical (cell-free) qHTS assay (AID 1645840; active = well fitted curve in the direction sought with a large enough effect in the repeat runs; inconclusive = weak or mixed curves; inactive = no such curve, though single readings can be large; an effect the other way counts as inactive or inconclusive; note: % is set by controls: 0 for no effect and ±100 for the full control effect; nearly all actives have a fitted effect of over 55% in size)
Summary of the method: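 P450-Glo CYP2D6 system: proluciferin substrate converted by enzyme to luciferin, read by luminescence proportional to activity. Enzyme-substrate mix with compound 10 min at room temperature, then NADPH regeneration 1 h before detection reagent.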

[16] = biological target: Cytochrome P450 2C9 (Homo sapiens) (UniProt P11712); assay: Cytochrome P450 family 2 subfamily C member 9 (CYP2C9) small molecule antagonists: luciferase biochemical (cell-free) qHTS assay (AID 1645842; active = well fitted curve in the direction sought with a large enough effect in the repeat runs; inconclusive = weak or mixed curves; inactive = no such curve, though single readings can be large; an effect the other way counts as inactive or inconclusive; note: potency is the fitted concentration of half-maximal effect; nearly all actives have a fitted effect of over 55% in size)
Summary of the method: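 P450-Glo CYP2C9 system: proluciferin substrate with enzyme in mix containing 0.4% BSA, 10 min at room temperature, then NADPH regeneration solution added and incubated 1 h at 37C. Detection reagent stopped reaction; luminescence read after 20 min as RLU.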
Tags give direction and shape of the fitted curve.

Sequence of UniProt Q07343 (Q07343 whole entry, looked up): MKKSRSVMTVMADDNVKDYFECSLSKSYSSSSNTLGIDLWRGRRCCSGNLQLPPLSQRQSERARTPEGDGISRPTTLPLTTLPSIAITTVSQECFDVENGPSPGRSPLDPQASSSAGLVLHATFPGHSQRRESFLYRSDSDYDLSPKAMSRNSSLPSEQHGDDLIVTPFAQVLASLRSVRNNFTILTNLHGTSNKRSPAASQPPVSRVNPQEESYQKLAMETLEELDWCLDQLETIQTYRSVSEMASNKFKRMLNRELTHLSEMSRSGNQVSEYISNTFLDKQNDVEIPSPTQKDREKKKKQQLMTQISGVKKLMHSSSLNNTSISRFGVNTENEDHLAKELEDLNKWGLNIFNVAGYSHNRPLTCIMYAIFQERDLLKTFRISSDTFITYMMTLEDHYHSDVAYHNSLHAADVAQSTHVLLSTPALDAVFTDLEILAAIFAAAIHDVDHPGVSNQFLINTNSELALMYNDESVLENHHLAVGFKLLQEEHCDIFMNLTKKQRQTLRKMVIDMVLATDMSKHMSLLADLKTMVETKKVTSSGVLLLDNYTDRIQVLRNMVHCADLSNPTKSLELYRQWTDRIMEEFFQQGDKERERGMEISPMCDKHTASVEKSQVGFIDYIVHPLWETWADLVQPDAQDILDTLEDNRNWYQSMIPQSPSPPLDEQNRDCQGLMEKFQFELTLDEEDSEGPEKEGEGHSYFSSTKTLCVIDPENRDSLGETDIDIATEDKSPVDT
Sequence of UniProt P05177 (P05177 whole entry, looked up): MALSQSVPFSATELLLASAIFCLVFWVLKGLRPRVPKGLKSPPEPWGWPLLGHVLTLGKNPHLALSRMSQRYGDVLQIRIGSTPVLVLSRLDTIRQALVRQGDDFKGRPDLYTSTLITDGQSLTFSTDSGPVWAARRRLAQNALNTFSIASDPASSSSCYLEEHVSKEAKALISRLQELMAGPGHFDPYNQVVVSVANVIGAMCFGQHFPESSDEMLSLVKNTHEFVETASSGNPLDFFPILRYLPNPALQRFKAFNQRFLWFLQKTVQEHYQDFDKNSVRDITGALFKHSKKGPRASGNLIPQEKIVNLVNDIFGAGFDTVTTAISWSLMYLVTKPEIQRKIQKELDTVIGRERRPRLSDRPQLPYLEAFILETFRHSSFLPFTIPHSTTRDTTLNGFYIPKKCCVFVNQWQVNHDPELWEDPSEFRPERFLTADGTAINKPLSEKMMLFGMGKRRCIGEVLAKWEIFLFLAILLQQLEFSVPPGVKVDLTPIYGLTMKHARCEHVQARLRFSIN
Sequence of UniProt P10635 (P10635 whole entry, looked up): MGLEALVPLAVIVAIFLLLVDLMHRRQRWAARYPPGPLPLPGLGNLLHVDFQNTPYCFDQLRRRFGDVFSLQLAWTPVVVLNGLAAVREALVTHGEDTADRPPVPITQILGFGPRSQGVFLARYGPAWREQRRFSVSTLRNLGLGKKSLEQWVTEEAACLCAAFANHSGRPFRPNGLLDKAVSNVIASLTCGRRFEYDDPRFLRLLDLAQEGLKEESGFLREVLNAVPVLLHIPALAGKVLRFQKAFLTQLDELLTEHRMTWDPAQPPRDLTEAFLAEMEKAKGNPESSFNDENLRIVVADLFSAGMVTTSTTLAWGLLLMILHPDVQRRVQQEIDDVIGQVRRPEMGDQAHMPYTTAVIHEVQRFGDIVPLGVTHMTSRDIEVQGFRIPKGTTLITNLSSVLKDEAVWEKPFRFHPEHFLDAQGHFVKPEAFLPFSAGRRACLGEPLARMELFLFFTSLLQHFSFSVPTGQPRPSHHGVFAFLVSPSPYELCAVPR
Sequence of UniProt P07203 (P07203 whole entry, looked up): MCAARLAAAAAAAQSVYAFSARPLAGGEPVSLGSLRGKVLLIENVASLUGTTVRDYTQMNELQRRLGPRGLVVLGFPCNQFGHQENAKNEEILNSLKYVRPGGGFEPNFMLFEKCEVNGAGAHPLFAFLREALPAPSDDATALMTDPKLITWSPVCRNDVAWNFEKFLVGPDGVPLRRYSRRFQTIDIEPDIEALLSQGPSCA
Sequence of UniProt P04150 (P04150 whole entry, looked up): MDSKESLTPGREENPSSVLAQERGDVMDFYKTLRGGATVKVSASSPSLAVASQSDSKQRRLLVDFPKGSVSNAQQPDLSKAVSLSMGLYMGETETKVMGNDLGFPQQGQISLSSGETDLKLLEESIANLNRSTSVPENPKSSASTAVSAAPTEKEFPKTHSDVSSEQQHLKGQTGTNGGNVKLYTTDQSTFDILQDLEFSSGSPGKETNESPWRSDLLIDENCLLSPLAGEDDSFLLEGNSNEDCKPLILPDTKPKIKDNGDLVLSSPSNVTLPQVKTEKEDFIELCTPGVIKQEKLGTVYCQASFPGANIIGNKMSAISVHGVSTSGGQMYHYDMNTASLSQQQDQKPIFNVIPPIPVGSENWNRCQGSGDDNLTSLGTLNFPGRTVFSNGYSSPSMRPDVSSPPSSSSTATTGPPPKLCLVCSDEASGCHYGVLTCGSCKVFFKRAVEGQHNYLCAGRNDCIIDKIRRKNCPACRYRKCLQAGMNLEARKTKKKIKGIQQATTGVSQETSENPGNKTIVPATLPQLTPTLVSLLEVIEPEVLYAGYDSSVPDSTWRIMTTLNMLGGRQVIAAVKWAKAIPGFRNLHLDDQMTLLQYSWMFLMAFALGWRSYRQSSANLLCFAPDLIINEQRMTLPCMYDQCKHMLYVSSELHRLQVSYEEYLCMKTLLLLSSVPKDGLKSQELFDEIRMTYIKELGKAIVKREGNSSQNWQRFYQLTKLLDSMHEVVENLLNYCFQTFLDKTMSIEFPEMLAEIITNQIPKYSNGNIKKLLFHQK
Sequence of UniProt P11712 (P11712 whole entry, looked up): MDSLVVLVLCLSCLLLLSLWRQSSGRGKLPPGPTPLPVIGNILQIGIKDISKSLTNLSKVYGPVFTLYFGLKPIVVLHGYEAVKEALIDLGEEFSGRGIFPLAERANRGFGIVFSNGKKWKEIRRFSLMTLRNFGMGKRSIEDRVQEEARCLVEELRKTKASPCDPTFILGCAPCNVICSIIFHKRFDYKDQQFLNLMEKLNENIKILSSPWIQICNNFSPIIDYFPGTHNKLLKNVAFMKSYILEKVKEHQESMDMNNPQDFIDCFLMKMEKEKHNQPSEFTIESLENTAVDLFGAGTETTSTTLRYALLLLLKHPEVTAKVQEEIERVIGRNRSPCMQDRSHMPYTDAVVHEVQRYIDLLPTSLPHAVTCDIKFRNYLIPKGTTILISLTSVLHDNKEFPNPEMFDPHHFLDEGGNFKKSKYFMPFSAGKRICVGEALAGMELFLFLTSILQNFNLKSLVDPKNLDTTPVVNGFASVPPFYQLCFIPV
Sequence of UniProt P08684 (P08684 whole entry, looked up): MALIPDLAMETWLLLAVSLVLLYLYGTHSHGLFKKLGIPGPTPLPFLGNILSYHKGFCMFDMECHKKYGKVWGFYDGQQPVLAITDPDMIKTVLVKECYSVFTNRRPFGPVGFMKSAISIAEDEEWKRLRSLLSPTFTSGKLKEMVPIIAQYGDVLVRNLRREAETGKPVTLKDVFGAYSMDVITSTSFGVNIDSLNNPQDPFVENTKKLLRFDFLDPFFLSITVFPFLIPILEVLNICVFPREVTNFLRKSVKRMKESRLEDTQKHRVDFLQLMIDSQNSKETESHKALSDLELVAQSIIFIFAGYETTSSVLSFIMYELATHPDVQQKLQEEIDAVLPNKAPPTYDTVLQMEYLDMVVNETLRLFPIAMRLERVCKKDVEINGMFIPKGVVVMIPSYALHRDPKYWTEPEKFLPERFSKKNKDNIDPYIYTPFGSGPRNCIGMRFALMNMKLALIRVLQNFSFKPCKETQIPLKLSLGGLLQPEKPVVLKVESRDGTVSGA

CC1(C)C(=O)N2c3ccccc3[C@]3(CC(n4cnc5ccccc5c4=O)C(=O)O3)[C@H]2N1O (some centres undefined)
Potency [1]: inactive
Potency [2]: inactive

O=c1oc2ccc3ccccc3c2cc1-c1nnc(Nc2ccc(Cl)cc2Cl)s1
Potency [3]: inactive

O=C(OCC#CCSc1nnc(-c2cc3ccccc3cc2O)o1)c1ccc(F)cc1
Potency [3]: inactive
Potency [4]: inconclusive: 0.276 µM [inhibitor, partial curve, poor fit]

COc1ccc(C(=O)Nc2cccc(C(=O)OCc3cc(=O)n4c5c(sc4n3)CCCC5)c2)cc1
Potency [3]: inconclusive: 44.7 µM [inhibitor, partial curve, poor fit]

COc1cc2c(CCNC(C)=O)c[nH]c2cc1O
activity change, negative = inhibition [5]: inconclusive: 38.9% [activator] [at 38 µM]
activation [6]: inconclusive: -29.8%
Potency [7]: inactive
Potency [8]: inconclusive: 33.8 µM [inhibitor, partial curve, poor fit]

N[C@H](C(=O)O)[C@H](O)C(=O)O
Potency [9]: inconclusive: 39.8 µM [decreasing]
Potency [10]: inactive
Potency [11]: inconclusive: 0.0316 µM [inhibitor, full curve, poor fit]

O=C(O)c1cc(=O)cc(C(=O)O)[nH]1
Potency [12]: inactive: > 46 µM
Potency [13]: inconclusive: 3.55 µM [inhibitor, partial curve]

Cc1c2oc3c(C)ccc(C(=O)N[C@@H]4C(=O)N[C@@H](C(C)C)C(=O)N5CCC[C@@H]5C(=O)N(C)CC(=O)N(C)[C@@H](C(C)C)C(=O)O[C@H]4C)c3nc-2c(C(=O)N[C@@H]2C(=O)N[C@@H](C(C)C)C(=O)N3CCC[C@@H]3C(=O)N(C)CC(=O)N(C)[C@@H](C(C)C)C(=O)O[C@H]2C)c(N)c1=O (I: [aThr]V[dP][Sar][NMeV] / II: [aThr]V[dP][Sar][NMeV]; ester I:1-I:C, II:1-II:C; linker I:N-II:N via Actinocin(9to1))
Potency [10]: inconclusive: 15.1 µM [inhibitor, single point]
Potency [14]: inactive
Potency [15]: inactive
Potency [16]: inconclusive: 7.56 µM [inhibitor, partial curve, poor fit]
